Consider 57 molecules from the supplement of paper PMC4723716.

The full ranking holds about 3,600 compounds; the median of “viability index relative to DMSO control” is about 0.81, and the lowest 2% start at about 0.13. The list shows a part of the results.
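Note: 384-well serum-free SaLSSA: MitoTracker Red CMXRos staining with saponin lysis, high-content imaging, treated-well particle count divided by plate-mean count of DMSO wells.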

In this test the test system is Plasmodium falciparum NF54 stage V gametocytes. Put plainly: viability index relative to DMSO control (fraction); higher = less gametocyte killing. Particulars: 1.25 µM, incubation time: 72 h.
The molecule `Cc1[nH]c(=O)[nH]c(=O)c1S(=O)(=O)Nc1ccc2oc(-c3ccncc3)nc2c1` gave a viability index of 0.779. Regarding `O=C1C(NC2CCCCC2)=C(N2CCOCC2)C(=O)c2ccccc21`, the viability index was 0.892.

Regarding `Cc1ccc(CSCc2ccc(C(=O)NC3CC3)o2)cc1`, the viability index was 0.861.

In turn, `O=C(NCSC1=NCCS1)c1ccccc1` registered a viability index of 0.996.

Molecule `CCc1ccc(NC(=O)c2ccc(F)c(S(=O)(=O)NC3CCCC(C)C3C)c2)cc1` (configuration not stated) yielded a viability index of 0.697.

For `Fc1ccc(-c2c[n+](Cc3ccc(Cl)cc3Cl)c3n2CCC3)cc1`, the viability index came to 0.816. The value for `Oc1c2c(nc3cc(-c4ccc(Cl)cc4)nn13)CCCC2` was 0.583. With `COc1ccc(S(=O)(=O)N=C2C=C(Nc3ccccc3)C(=O)c3ccccc32)cc1`, the viability index is 0.232. As for `CC1=C(C(=O)OC(C)C)C(c2ccc([N+](=O)[O-])cc2)C2=C(CC(c3ccc(Cl)cc3)CC2=O)N1` (configuration not stated), the figure is 0.871. In turn, `COc1ccc(S(=O)(=O)N=C2C=C(Nc3ccc(O)cc3)C(=O)c3ccccc32)cc1` yielded a viability index of 0.228. As for `O=C(c1ccccc1)N1CCc2nc(Cc3ccc(F)cc3Cl)sc2C1`, the figure is 0.708. `CN1CCCC1CCNCc1cc(-c2ccnc3cc(Cl)ccc23)ccc1O` (configuration not stated) showed a viability index of 0.75. `CC12CCC(C(=O)N(CC(O)Cn3c4ccc(Cl)cc4c4cc(Cl)ccc43)C1=O)C2(C)C` (configuration not stated) showed a viability index of 0.377. As for `CCOC(=O)c1cccc(NC(=O)CCn2nc(C)c3c(C)n(-c4ccccc4)nc3c2=O)c1`, the figure is 0.739. The value for `COc1ccc(CCn2c(SCC(=O)N3CCN(c4ccccc4OC)CC3)nc3ccccc3c2=O)cc1OC` was 0.747. As for `Cc1ccc(Nc2nc(NCCO)c3ccccc3n2)cc1C`, the figure is 0.601. The molecule `CCC(CC)=NNC(=O)C(=O)NC1CCCCC1` came in with a viability index of 1.13. Regarding `Cc1nc(N(C)c2ccc(C(C)C)cc2)c2c(C)c(C(=O)Nc3cc(C)on3)sc2n1`, the viability index came to 0.732.

The molecule `O=C1C(NC2CCCC2)=C(N2CCOCC2)C(=O)c2ccccc21` registered a viability index of 1.22.

In turn, `CC(C)CCN1C(=O)N(CCN(C)C)C(=O)C12CCN(Cc1ccc(O)cc1)CC2` registered a viability index of 0.971. As for `COc1ccccc1C=CC1=NC(=Cc2ccc(SC)cc2)C(=O)O1`, the figure is 0.789; as for `Cc1ccc(C2C3=C(CC(C)(C)CC3=O)N(Cc3ccc4c(c3)OCO4)C3=C2C(=O)CC(C)(C)C3)cc1`, 0.811; as for `CCOc1ccc(C=C(C#N)c2nc3ccccc3[nH]2)cc1OC`, 0.837. The value for `CC(NCc1ccccc1)c1cc(Cl)ccc1O` (configuration not stated) was 0.625; that for `COc1ccc(C(=O)N2c3cc(C)ccc3C(Nc3ccc(C)cc3)CC2C)cc1` (configuration not stated) was 1.02; that for `COc1cc(OC)c(NC(=O)c2ccc(N3CC4CC(C3)c3cccc(=O)n3C4)c([N+](=O)[O-])c2)cc1Cl` (configuration not stated) was 0.905. In the case of `Fc1ccc2[nH]c3c(N4CCN(C(c5ccccc5)c5ccccc5)CC4)ncnc3c2c1`, the viability index was found to be 0.623. The value for `O=C(C=Cc1ccccc1)NNC(=O)c1cccnc1` was 1.03; that for `COc1ccc(C2(C(=O)NCc3ccccc3Cl)CCCC2)cc1OC` was 0.785; that for `CCCn1c(=O)c(C(=O)NCC[N+](CC)(CC)CC)c(O)c2ccccc21` was 0.688.

In turn, `Oc1ccc(-c2cncnc2)cc1CNC1CCN(Cc2ccccc2)CC1` returned a viability index of 1. The molecule `O=C1CN(C(=O)CCC2CCCC2)C(c2ccc(F)cc2)c2cc(F)ccc2N1` (configuration not stated) showed a viability index of 0.589. The value for `COC(=O)c1ccc(N2C(=O)C3C(C2=O)C2(c4ccccc4)C(=O)C3(c3ccccc3)C(c3ccc(OC)cc3)=C2c2ccc(OC)cc2)cc1` (configuration not stated) was 0.584; that for `CCOc1ccccc1NC(=O)Nc1ccc2nc(N3CCN(C)CC3)cc(C)c2c1` was 0.787; that for `c1ccc(-c2c3c(cc4ccccc24)C[N+]2(CCCC2)C3)cc1` was 0.985. For the molecule `CCN1C(=Cc2sc3ccccc3[n+]2C)C=Cc2cccc(C)c21`, the viability index stood at 0.305. The value for `CCOC(=O)c1nnn(-c2nonc2N)c1-c1ccc(OC)cc1` was 0.838. The value for `COC(=O)c1ccccc1NC(=O)CN(C)c1nc(-c2ccc(OC)cc2)no1` was 1.21. For `COc1cccc(CNc2cc(C(=O)NCCNC(C)=O)cc(S(=O)(=O)N(C)C)c2)c1OC`, the viability index is 1.32. On to `CCCOC(=O)C1=C(C)NC2=C(C(=O)CC(c3ccc(Cl)cc3)C2)C1c1ccc(Br)cc1` (configuration not stated), for which the viability index came to 0.536. For `C(=NNc1nc2ccccc2[nH]1)c1ccccc1`, the viability index was found to be 0.71. The value for `COC(=O)c1ccc(C2C3=C(CC(c4ccc(OC)cc4)CC3=O)Nc3ccccc3N2C(=O)c2ccccc2)cc1` (configuration not stated) was 0.679; that for `O=C(O)CC/C(=C1/C=C(c2ccc(Cl)cc2)NC1=O)c1ccc(Cl)cc1` was 0.682. The value for `Cc1cccc(NC(=S)NC2CC3CCCC(C2)N3CCc2ccccc2)c1` (configuration not stated) was 0.888. `O=C(Cn1c2ccccc2c(=O)c2cc([N+](=O)[O-])ccc21)Nc1ccc(F)c(Cl)c1` showed a viability index of 0.776. For `CCCN(CCC)C(=O)c1c[nH]c2ccc(S(=O)(=O)N(C)c3ccc(F)cc3)cc2c1=O`, the viability index is 1.25. The value for `O=C1CC(=O)Nc2cc(S(=O)(=O)NC3CCCCCCC3)ccc2N1` was 0.938; that for `COc1ccc(N(CC(=O)NCCc2ccc(F)cc2)S(=O)(=O)c2ccccc2)cc1` was 1.05; that for `Brc1ccc2c(c1)c1ccccc1n2CC1CO1` (configuration not stated) was 0.71.

`NC(=S)NN=Cc1cc([N+](=O)[O-])ccc1O`: the viability index turned out to be 0.176.

In the case of `Cc1ccc2ccc3ccc(C)nc3c2n1`, the viability index stood at 0.0302. Molecule `CSc1nc2nc(C)c(Cc3cccc(F)c3)c(C)n2n1` showed a viability index of 0.877. The value for `COc1cccc2cc(C(=O)Nc3cccc(C(F)(F)F)c3)c(=O)oc12` was 0.669; that for `O=[N+]([O-])c1cccc2c1nnn2C12CC3CC(CC(O)(C3)C1)C2` was 0.859. As for `CCCCCCCCCC[n+]1c(C)n(CC)c2cc(Cl)c(Cl)cc21`, the figure is 0.559. The value for `COc1ccc(OC)c(-c2ccc(O)c(CNCCCN(C)C)c2)c1` was 0.74; that for `Cc1ccc(Cn2c(N3CCC(C(=O)NCc4ccc(F)cc4)CC3)nc3ccccc32)cc1` was 0.55.
